# The source gives no read counts; variants with many changes may rest on few reads.
# B1: LINE1-mini (parent)
# chain: GGCAGAGCUCAACACAGCGUGGCAAAGUGGCUGUGGCUAGACUGCC
# Variants of: B1
# Assay: self-cleavage, relative activity (ratio to wild type); higher = more cleavage; in vitro, sequencing; the parent is a self-cleaving ribozyme
row,Variant,self-cleavage
1,A4U A12C C23G,0.01
2,A6G C8U A16C A26C G35C,0.01
3,G5C C18A A26U G29U G33U G36A,0.03
4,G21U G22A C23A,1.03
5,G5A G7A C10A C18G U20G G21U U28C U43A,0.01
6,G22U U34G G44C,0.14
7,A6C G19A A26C G29C G33A G35U A39C,0.08
8,A4G A6C C18U C46A,0.2
9,C8A C15G G17A C18A C42A,0.01
10,C18A A24U U43A G44A,0.01
11,G5U G7C C13G A25G C46U,0.06
12,A16U C31A U38G G44A,0.01
13,A11U C13U C18U,0.05
14,G29A U32C C37G,0.06
15,C18G C37U G40A G44U,0
16,U20A A25G G36A U38G,0.01
17,A26C U32A U34G,0.01
18,G5U C8A C10G G27C G35C,0.01
19,C8A G33C C45A,0.04
20,G22C G36U U43A,0.46
21,A11U G33C U38A C42A,0.03
22,G27A U43A C45A,0.04
23,G19C U32A G44U C46A,0.03
24,G1U G2A A11G C15A,0.01

row,Variant,self-cleavage
1,C13G G27C G40U,0.01
2,A4C A12U G30U G44A,0.04
3,G29U U34C C37G,0.1
4,A6U G7U G29C A41C,0.15
5,G5A G22U G35U,0.22
6,C15G G22U A41C C46A,0
7,G5A A6C U20C C31A,0.05
8,G2C U9C C31G,0.03
9,C8A C10U G22U,0.14
10,C8U A11U U34A G36U C42A,0.02
11,C23U G30U G36U C42U,0.02
12,G30U G36A A39G C42G,0.04
13,G7C G19U U32G,0.05
14,G5U C13U A16G A24C G33U G40C,0.01
15,G2C A11C G29C C42G,0
16,C8A A25C G29C C42A,0.05
17,C3A G30A C37G,0.84
18,C13A G27U U38A,0.05
19,A4U A6G G21U G44A,0
20,C8G C13U A14U A39G C45U,0.24
21,G5A A11U G21U G33C,0.03
22,A25G U28G C45A,0.22
23,G17C C18U G30U,0.03
24,G5U C8A C42A C45U,0.23

row,Variant,self-cleavage
1,C13A C23U U28G,0.02
2,G2U C3A C10G,0.04
3,C10A G36C C37G U38G A39U U43C,0.01
4,G17A U20G G30C C37A C45G,0.01
5,G5C C23G C31A G35C,0.01
6,C23U U32A C45G,0.17
7,A11U A12C G33A C45A,0.01
8,A26C G40U U43A C45G,0.03
9,A16C C31G C45G,0.03
10,G1U U32C C45U,0.01
11,G17A A26C G27U,0.67
12,A12U C18U A26C G29A,0.66
13,U9C C10U A24U G35C,0.02
14,A6U C31U G33A G36A,0.2
15,G7C C8U A11C G17A G44C,0.03
16,G2A A11G C42A C46A,0.04
17,G17A C23U G27C,0.33
18,A11C C18G G19U,0.01
19,A16C G19C G21U,0.38
20,G7A A12C G17A C18A,0.01
21,G2U U9A C13A G19A U20C,0.01
22,C15U U20A A39C,0.17
23,G19A G29C A39U,1.25
24,G1U C18U G19C G29A,0.63

row,Variant,self-cleavage
1,C10A G27U C37G C42A U43C,0
2,C8U C10A A16C A25U,0.07
3,A4U U20G U43C,0.08
4,C18U A25C G40C,0.04
5,C23U U34G C37G,0.01
6,A24G G40C U43C,0.14
7,A4U A6C C13G,0.02
8,G7C A14C C18A G27U,0.08
9,G19A A39G U43A G44U,0.07
10,G27U G35U G40A,0.05
11,C3U C15U A16U G30A U43G,0
12,G1A C10U U20G A26G,0.68
13,C13A C31G C45U,0.13
14,C13A C31A U32G G36U,0.02
15,A14U A25G U32G U43A,0.09
16,C15G U28A C46U,0.09
17,C8U C13A G36A,0.83
18,C3A U9A A14G C18U,0.18
19,A24G A25U G40C,0.31
20,C15G G33C C45U,1.18
21,G2C G29A U32A U38A,0.02
22,U20G G27C G35U,0.04
23,A6C G27U A41U C45U,0.03
24,C15A C18U U34C A39C,0.04

row,Variant,self-cleavage
1,A4G C10U G29A U38C A41U,0.04
2,G5U G21A G27A,0.07
3,A6G G17U G19U,0.02
4,C10G C15G G35A,0.04
5,G2U G22A G35U,0.15
6,C3U C8A A39U C42U,0.03
7,C13A U20C G30A U34G,0.01
8,A11U A26U C31U,0.12
9,G1A G19U G29U,1.79
10,G1A C42U G44A,0.06
11,G5C U20C G21U U28A G36U C46U,0.02
12,C18A G27A G29U G36U,0.05
13,G2U G30A G33U U38C,0.02
14,C8U A39C G44A,0.12
15,C18A G44U C46U,0.03
16,A4U A14U C18U,0
17,A11C A12G C37A G44U,0
18,G21U C31U A39G,0.03
19,A12G G21C U28C G29U G36A,0.01
20,G30C G35A C37U G40U,0.06
21,G2A G7U C15G,0.22
22,G1U C23A U38A,0.06
23,A11G C13G C15G A16U A24G G33A,0.02
24,A16C A25G A39C,0.14

row,Variant,self-cleavage
1,G7C A12G G21C U34A,0.01
2,A4G G5U C8A A24C,0.77
3,U9G U34A G40C G44U,0.11
4,G1U G5C C15U G22U C46U,0.01
5,A12G A26G G27A,0.01
6,A4C G19C G30A,0.03
7,A11G A12U G27U,0.02
8,G5C G21A U28C C31G U32G,0.09
9,G2A G17A C18A A24C,0.5
10,G1C G2A A11G G27U C31G,0.01
11,G7A G30C C37U,0.14
12,G7U C15A G19U G36C C37U,0.11
13,G2U C13A C23G G44U,0.01
14,G30C G33A G35U,0.32
15,C13G C15G G22U G30C,0.02
16,C3U G7A A41C C46A,0.06
17,G21U U38C G40U,0.11
18,G2A A24C C31U,0.19
19,G5U C15U A26U G29U G35C G40U A41U U43C,0.03
20,C8A A12C G30C,0
21,A16G G19A A25G,0.11
22,G2A G17A G27C G33C A41U,0.04
23,C10A C15A G33U A39G,0.03
24,C15A A16G G35U G40C A41U C42U U43C,0.03

row,Variant,self-cleavage
1,G21A C23G G30C,0.35
2,G1C A4C A11C A12U U32G U34A,0.01
3,A6C C10U A16G C31G,0.01
4,G1C C8G U28G C42A,0.02
5,G2A A6U C23G A24G G35A C46A,0.02
6,A12U G29A U38G C42A,0
7,A16G G21U G29U G30U G40A,0.16
8,A6C G33C C46G,0.04
9,A14C G27A C37G,0.04
10,G7C C18G G21C U34G G36A A39G,0.12
11,G1U A16G C18G,0.11
12,A11C A16G C45A,0.01
13,G1A G2A A14C C23U C31U U43G C46G,0.02
14,G2U G22A G27U A39U,0.02
15,C15A C23U A26U,0.11
16,A14U A26U G33A,0.18
17,A12C G30U C37U C46A,0.01
18,G2U U9A A24C C42U C45U,0.04
19,C23U C31A G36C A41C G44C,0.02
20,C8U G29U G40C C42U,0.05
21,C10A U20A G30C,0.08
22,U9A C10U C46U,0.03
23,C3A C42G U43A,0.01

# — the RNAGym collection of RNA variant scans (doi:10.7554/elife.90254)
